From publication PMC4646629 come the findings set out here.

Amino acid sequences for entries named in this document (tags omitted).
UniProt Q39255: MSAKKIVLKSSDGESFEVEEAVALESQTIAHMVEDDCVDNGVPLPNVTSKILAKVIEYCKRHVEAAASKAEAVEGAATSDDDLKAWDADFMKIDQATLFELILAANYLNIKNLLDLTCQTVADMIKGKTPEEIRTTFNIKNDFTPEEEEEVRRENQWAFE
UniProt Q9FFG0: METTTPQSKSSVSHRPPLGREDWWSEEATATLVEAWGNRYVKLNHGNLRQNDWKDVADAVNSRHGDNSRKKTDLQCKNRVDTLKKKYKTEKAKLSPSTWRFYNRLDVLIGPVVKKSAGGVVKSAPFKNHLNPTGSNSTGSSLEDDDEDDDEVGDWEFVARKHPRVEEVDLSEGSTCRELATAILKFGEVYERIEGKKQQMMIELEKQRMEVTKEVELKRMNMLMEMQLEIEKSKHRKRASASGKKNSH

Like-named read-outs stand apart in the source and are kept apart here. Results are given in words; binding and its absence hold for the method and conditions named. For some assays here: In cells and extracts the contact can be indirect. Some binding calls cover weakened binding; strength is not graded here. For some assays here: Where a sequence is shown, tags or fusion partners need not be part of it.

The target of assay [1] is LexA-VirFdel1 (Agrobacterium) (UniProt P15597). As to the kind of experiment: two-hybrid; LexA baits and Gal4AD preys in S. cerevisiae TAT7 (L40-ura3); 2 days at 30°C on medium without leucine, tryptophan and histidine with 6 mM 3-AT; histidine prototrophy.
Assay [2] has as its target T1, cYFP-VirF (Agrobacterium) (UniProt P15597).
T1 sequence: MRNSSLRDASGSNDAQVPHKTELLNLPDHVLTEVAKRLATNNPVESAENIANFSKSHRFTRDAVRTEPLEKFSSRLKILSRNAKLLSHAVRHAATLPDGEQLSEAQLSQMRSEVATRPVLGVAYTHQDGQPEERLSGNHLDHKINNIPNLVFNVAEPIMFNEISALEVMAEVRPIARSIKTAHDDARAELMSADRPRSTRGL
The assay can be described thus: split reporter; BiFC: nYFP and cYFP fusions coexpressed in microbombarded N. benthamiana leaves, confocal microscopy 48 h later.

In assay [3] the target is LexA-VirFdel1 (Agrobacterium) (UniProt P15597). The assay can be described thus: two-hybrid; LexA baits and Gal4AD preys in S. cerevisiae TAT7 (L40-ura3); 2 days at 30°C on medium without leucine, tryptophan and histidine with 6 mM 3-AT; histidine prototrophy. This is another data set of the same source.
A further assay has as its target T2, cYFP-VBF (Arabidopsis) (UniProt Q9C7K0).
T2 sequence: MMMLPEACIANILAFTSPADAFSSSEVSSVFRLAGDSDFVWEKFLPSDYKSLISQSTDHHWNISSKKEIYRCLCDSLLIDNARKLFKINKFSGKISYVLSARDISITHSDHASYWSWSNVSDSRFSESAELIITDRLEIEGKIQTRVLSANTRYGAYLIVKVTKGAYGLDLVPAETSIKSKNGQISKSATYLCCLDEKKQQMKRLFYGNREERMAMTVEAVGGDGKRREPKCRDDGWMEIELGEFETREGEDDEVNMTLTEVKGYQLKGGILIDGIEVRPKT
As to the kind of experiment: split reporter; BiFC: nYFP and cYFP fusions coexpressed in microbombarded N. benthamiana leaves, confocal microscopy 48 h later.

Assay [4] has as its target T1, cYFP-VirF (Agrobacterium). The assay is described as above. The source holds these as a separate data set.

With “Arabidopsis ASK1 (from UniProt Q39255 1-160)”, in assay [1], the binding entry is given as “binds”. With nYFP-VFP5 (from UniProt Q9FFG0 1-248), in assay [2], the binding entry was “binds”.

B1: Gal4AD-VFP3 (protein, UniProt Q8VZI9 1-249)
chain: METTPETQSKTHRLPAGREDWWSEDATATLIEAWGDRYVNLNRGNLRQNDWKEVADAVNSSHGNGRPKTDVQCKNRIDTLKKKYKTEKAKPLSNWCFFDRLDFLIGPVMKKSSGAVVKSALMNPNLNPTGSKSTGSSLDDDDDDDDDDEEDDDDAGDWGFVVRKHRKVEDVDSSEGSAFRELARSILKLGEAFERIEGKKQQMMIELEKQRMEVAKELELQRMNMLMEMQLELEKSKLGKRRAASGKKL
Consider B1, for which the binding result in assay [3] is given as “binds”.

B2: nYFP-VFP3 (protein, UniProt Q8VZI9 1-249)
chain: METTPETQSKTHRLPAGREDWWSEDATATLIEAWGDRYVNLNRGNLRQNDWKEVADAVNSSHGNGRPKTDVQCKNRIDTLKKKYKTEKAKPLSNWCFFDRLDFLIGPVMKKSSGAVVKSALMNPNLNPTGSKSTGSSLDDDDDDDDDDEEDDDDAGDWGFVVRKHRKVEDVDSSEGSAFRELARSILKLGEAFERIEGKKQQMMIELEKQRMEVAKELELQRMNMLMEMQLELEKSKLGKRRAASGKKL
For B2, the binding result in the assay with cYFP-VBF (Arabidopsis) was “no binding”; in assay [4], “binds”.
